Reference: PubChem BioAssay AID360 (National Center for Advancing Translational Sciences (NCATS), 2006)
Among all 48,000 compounds or so, about 550 (1.1%) were called active. Not shown: some 4% with an inconclusive outcome. No stated cut-off is given here; in the data, active means potency below about 15 µM; inconclusive means mostly about 16 µM to 33 µM; inactive means weaker than that. This is one part of the list.

Target: Lysosomal acid glucosylceramidase (Homo sapiens) (UniProt P04062)
Experiment: Glucocerebrosidase;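 further: the screen sought inhibitors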
Conditions: purified enzyme, resorufin glucoside fluorescence (screen aimed at inhibitors), 20 min
Outline: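 Compounds titrated against 0.2 nM normal enzyme, 30 uM resorufin beta-D-glucopyranoside substrate, citrate/phosphate buffer with taurocholate and tween-20, pH 5.9. Reaction ran 20 min at room temperature; fluorescence (Ex 548/Em 600) gave AC50.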
Potency means the concentration at half of the fitted maximal effect.

Sequence of UniProt P04062 (P04062 whole entry, looked up): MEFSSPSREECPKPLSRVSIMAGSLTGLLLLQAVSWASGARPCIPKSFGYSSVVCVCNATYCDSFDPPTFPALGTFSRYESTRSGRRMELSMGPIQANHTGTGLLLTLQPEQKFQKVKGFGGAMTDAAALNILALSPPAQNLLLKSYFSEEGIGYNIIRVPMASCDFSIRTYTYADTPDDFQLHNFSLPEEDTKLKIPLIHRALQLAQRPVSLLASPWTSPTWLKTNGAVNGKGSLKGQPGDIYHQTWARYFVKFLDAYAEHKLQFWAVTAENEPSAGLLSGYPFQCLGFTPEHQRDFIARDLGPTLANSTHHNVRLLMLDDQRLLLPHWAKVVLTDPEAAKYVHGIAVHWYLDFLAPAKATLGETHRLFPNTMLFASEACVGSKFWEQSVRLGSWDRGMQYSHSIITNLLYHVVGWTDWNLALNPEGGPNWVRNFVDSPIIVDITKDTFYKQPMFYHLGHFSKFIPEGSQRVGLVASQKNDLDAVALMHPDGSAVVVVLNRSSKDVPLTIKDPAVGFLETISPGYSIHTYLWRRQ

Potency, inactive:
O=C(CSCSCC(=O)Nc1ccc2c(c1)OCO2)Nc1ccc2c(c1)OCO2 > 76.9 µM
Cc1nc(N2CCN(Cc3ccccc3)CC2)[nH]c(=O)c1C > 76.9 µM
c1ccc2c(-n3cnnn3)cccc2c1 > 76.9 µM
CN(Cc1ccccc1)S(=O)(=O)c1ccc2c(c1)n(C)c(=O)n2C > 76.9 µM
CCC(c1nnnn1CCOC)N1CCN(Cc2ccccc2)CC1 (stereo unspecified) > 76.9 µM
O=c1c(-c2ccco2)[n+]([O-])c2ccccc2n1OCc1ccccn1 > 76.9 µM
CCn1c2ccccc2c2nnc(SCC(=O)NC(CC(C)C)C(=O)OC)nc21 (stereo unspecified) > 76.9 µM
Cc1nn(Cc2ccc(Cl)cc2Cl)c(C)c1NC(=O)c1nc2n(n1)C(C(F)F)CC(C)N2 (stereo unspecified) > 76.9 µM
O=C(Cn1cccc1)Nc1ccc(F)cc1F > 76.9 µM
CCNC(=O)c1cc2c(=O)n3cccc(C)c3nc2n(Cc2ccc(C)cc2)c1=N > 76.9 µM
Nc1nnnn1/N=C/C(Br)=C/c1ccccc1 > 76.9 µM
O=C(c1ccc(Cl)cc1)N1CCCCC(Sc2nnc(-c3ccc4c(c3)OCO4)o2)C1=O (stereo unspecified) > 76.9 µM
Cc1ccc2c(c1)c1c(n2CC(O)Cn2nc(C)c(Br)c2C)C(=O)CCC1 (stereo unspecified) > 76.9 µM
CCOC(=O)c1c(NC(=O)CSc2nnc(CNc3ccc(F)cc3)o2)sc(C)c1C > 76.9 µM
Cc1cnc(C(=O)Nc2ccc3c(c2)CCC3)cn1 > 76.9 µM
CCCS(=O)(=O)N1CCC(C(=O)N2CCOCC2)CC1 > 76.9 µM
O=S(=O)(/N=S1/CC=CCN1S(=O)(=O)c1ccccc1)c1ccccc1 (stereo unspecified) > 76.9 µM
Cn1c(CCCCCN)nc2ccccc21 > 76.9 µM
CCOC(=O)Cn1nnc(-c2ccc(SC)cc2)n1 > 76.9 µM
Oc1ccccc1C1=Nc2ncnn2C(c2ccccc2)C1 (stereo unspecified) > 76.9 µM
CCn1c(CN2CCCCCC2=O)nnc1SCc1cnc(-c2ccccc2)s1 > 76.9 µM
C=CCc1ccccc1OCC(O)CNC (stereo unspecified) > 76.9 µM
c1cnc(-c2nnc3n2CCCCC3)cn1 > 76.9 µM
CCn1c(SCC(=O)c2ccccc2)nc2c(c1=O)SC(C)C2 (stereo unspecified) > 76.9 µM
Fc1ccc(-c2nnc(Cc3nnc(-c4ccc(F)cc4)o3)o2)cc1 > 76.9 µM
COC(=O)c1cc(NCc2ccc3c(c2)OCO3)ccc1N1CCOCC1 > 76.9 µM
